Screen size: about 48,000 compounds; about 450 (0.94%) were called active. Not shown: some 19% with an inconclusive outcome. Calls come from the whole dose curve; as a rule, active = well fitted inhibition curve with a large enough effect; inconclusive = small, poorly fitted or top-dose-only effect; inactive = no such curve, though single readings can be large or run the other way. Some of the results follow.
test: Primary qHTS for Identification of Small Molecule Inhibitors of Huntingtin Promoter Activity; conditions: HEK293 HTT promoter firefly luciferase reporter (activity 0% = vehicle and -100% = no light), 24 h; series mostly up to 57.5 µM; activity change, negative = inhibition: at the top concentration; note: nearly all actives have a fitted effect of over 50% in size
Procedure, shortened: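 Quantitative HTS used concentration series of up to 57.5 uM final on HEK293 luciferase reporter cells, 24 h at 37 degrees C. Readout was Dual-Glo firefly luminescence.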
Potency is the fitted concentration of half-maximal effect.

Activity change, negative = inhibition, inactive:
O=C(CSc1nc2c(oc3ccccc32)c(=O)n1Cc1ccco1)Nc1ccccc1Cl -15.8%
O=C(Cn1ncc2c3ccccc3n(Cc3cccc(Cl)c3)c2c1=O)NCc1cccs1 -12.3%
CCCc1ncc(C(=O)O)s1 4.52%
CCc1ccc(OCc2nc(-c3ccc(OC)cc3)no2)c(Br)c1 -12.5%
O=C(Nc1nc2ccccc2s1)c1ccc(S(=O)(=O)N2CCCC2)cc1 21.8%
COc1ccc(CNC(=O)CSc2nc(-c3ccc(OC)c(OC)c3)cc(C(F)(F)F)n2)cc1 -17.9%
CCCC12CN3CC(CCC)(CN(C1)C3c1ccccc1)C2=O (stereo not given) -20.9%
CCS(=O)(=O)c1nc(S(=O)(=O)c2ccc(C)cc2)c(NCCCOC)s1 -8.31%
Cc1cc2oc3c(c(=O)c2cc1C)C1(C(=O)N(C)c2ccccc21)N(CCO)C3=O (stereo not given) -15.4%
CCn1c(CNC(=O)c2ccc(OC)cc2)nnc1SCC(=O)Nc1ccc(C)cc1 -12.1%
Nc1cc(=O)nc(SCC(=O)Nc2ccc(F)cc2)n1CCc1ccccc1 -15.5% [at 11.5 µM]
COc1ccc(N2CC(NC(=O)c3ccco3)CC2=O)cc1 (stereo not given) 3.58%
O=C(Nc1ccccc1Br)C(Cc1ccccc1)NS(=O)(=O)c1cccc2nsnc12 (stereo not given) -29.1%
COc1ccccc1NC(=O)C1CCN(C(=O)c2sc3nc[nH]c(=O)c3c2C)CC1 1.18%
CC(=O)c1ccc(NC(=O)c2ccc(-c3ccc(Cl)cc3)o2)cc1 13%
CCN(CC)CCNC(=O)c1ccc2nc(CCc3ccccc3)oc2c1 23.3%
Cc1cccc(CCNC(=O)CCc2c(C)nc3c4c(C)cc(C)nc4nn3c2C)c1 -13.5%
COc1ccc(CNC(=O)Cn2ncc3c([nH]c4ccccc43)c2=O)cc1 -2.11%
CCc1cccc(C)c1NC(=O)Cn1c(=O)cc(C)c2c(C)nn(-c3cccc(F)c3)c21 -24.5%
COc1ccccc1N1CCN(c2cc(C)nc3nc(-c4ccc(C)cc4)nn23)CC1 -9.23%
O=C(NCc1ccc(F)cc1)c1ccc(Nc2nc3ccccc3n3nnnc23)cc1 0.895%
Cc1c(C(=O)Nc2ccccc2F)sc2ncnc(N(C)C3CCCCC3)c12 -20.2%
CC(C)CN(CCCNC(=O)c1cc(=O)[nH]c2ccc(S(=O)(=O)N3CCCCCC3)cc12)CC(C)C -3.44%
CC(=O)N1c2nc(C(C)C)nn2C2(CCCCC2)[C@@H]2CCCC[C@@H]21 -9.09%
CCOc1ccc2oc(=O)cc(CN3CCN(c4cc(C)ccc4C)CC3)c2c1 -6.56%
O=C(Nc1ccc2oc(-c3ccc(O)c(Br)c3)nc2c1)c1cc2ccccc2o1 26%
Cc1nc2nc(NC(=O)c3ccccc3F)[nH]n2c(=O)c1Cl -2.9%
Cc1cccc(N2CCN(C(=O)c3cccn4c(=O)c5cc(Cl)ccc5nc34)CC2C)c1 (stereo not given) -2.91%
CC(C)(CO)[C@@H](O)C(=O)NCCCO 8.86%
O=C(CSc1nnc(-c2cccc(Cl)c2)o1)N1CCc2ccccc21 -5.98%
COc1cc(OC)c(NC(=O)C2=C(C)C(=O)OC23CCCCCC3)cc1Cl -8.2%
COc1ccccc1-c1nnc(SCC(=O)Nc2ccccc2F)o1 51.2%
Cc1ccc(Cl)cc1NC(=O)CCC(=O)N1CC(C)Sc2ccccc21 (stereo not given) -29.1%
O=C(NCCc1ccc(Cl)cc1)C1CCN(c2ncnc3c2nc2n3CCCCC2)CC1 -7.42%
Cc1ccc(-n2c(=O)c3c4c(sc3n(CC(=O)c3ccc(Cl)cc3)c2=O)CCC4)cc1C -18.4%
CN(Cc1ccco1)C(=O)c1ccc2c(c1)N(Cc1ccccc1F)C(=O)c1ccccc1S2 -24%
CCc1ccc(NC(=O)CN2CCCN(Cc3cccc(Cl)c3)S2(=O)=O)cc1 -12.8%
CCOc1ccc(NC(=O)c2cc(S(=O)(=O)N3CCCCCC3)cn2C)cc1 -10%
COc1ccc2c(c1)c1c(c(=O)n(-c3ccc(F)c(Cl)c3)c(=O)n1CC(=O)N1CCCC1)n2C -4.09%
Cc1c2cnn(-c3ccccc3)c(=O)c2c(C)n1CC(=O)NCCc1ccc(Cl)cc1 -14.2%
CC(=O)N1CCc2c(sc3c2c(=O)n(-c2ccccc2)c(=O)n3CC(=O)Nc2ccccc2)C1 -14.1%
COc1cc(CNC(=O)c2ccc3c(c2)N(C)C(=O)C2CCCCN32)cc(OC)c1OC (stereo not given) -1.44%
O=C(O)c1ccc(CNCc2ccc(Cl)cc2)s1 -11.5%
Cc1ccc2nc(Nc3cccc(Cl)c3C)c(-n3nc(C)cc3C)nc2c1 8.12%
CC(C)CN(C(=O)c1cccc(S(=O)(=O)N2CCCCC2)c1)C1CCS(=O)(=O)C1 (stereo not given) -20.4%
Cc1ccccc1NC(=O)Cn1c(SCC(=O)Nc2ccc(F)cc2)nc2ccccc21 -20.1%
CCOC(=O)c1ccc(NC(=O)Cn2c(=O)n(-c3ccc(C)cc3)c(=O)c3c2cnn3C)cc1 -8.56%
Cc1c(-c2nc(-c3ccc4c(c3)OCO4)no2)nnn1-c1ccc(Br)cc1F 13.3%
Cc1ccc(CNC(=O)Cc2c(C)c3cc4c(C)coc4cc3oc2=O)cc1 -2.57%
O=C(COc1ccccc1Cl)OCc1cc(=O)n2nc(-c3cccs3)sc2n1 -20.6%
CCOC(=O)c1c(NC(=O)c2nc(SCC)ncc2Cl)sc(C(C)=O)c1C -11.9%
COc1ccc([C@@H]2CC(=O)c3c(O)cc(O[C@@H]4O[C@H](CO[C@@H]5O[C@@H](C)[C@H](O)[C@@H](O)[C@@H]5O)[C@@H](O)[C@H](O)[C@@H]4O)cc3O2)cc1O -3.42%
COc1ccc(C(=O)OCc2cc(=O)n3nc(-c4cccs4)sc3n2)cc1 0.526%
CCC(Cn1nnc2ccccc2c1=O)NC(=O)Nc1cccc(C)c1C (stereo not given) -3.77%
Cc1ccc(NC(=O)C2CCCN(c3nnc(C)c4c(C)n(-c5ccccc5)nc34)C2)c(Cl)c1 (stereo not given) 10.2%
CCC(=O)N1CCc2cc(Br)cc(S(=O)(=O)CCC(=O)N3CCN(c4cccc(C(F)(F)F)c4)CC3)c21 -22.1%
CC1=C(C(=O)Nc2ccccc2)C(c2ccncc2)n2nc(SCc3ccccc3Cl)nc2N1 (stereo not given) -16%
O=C(Cn1c(=O)n(Cc2ccco2)c(=O)c2ccccc21)Nc1ccc(Cl)cc1Cl -4.07%
O=C(Cn1c(=O)ccc2cc(S(=O)(=O)N3CCCC3)ccc21)NCc1ccc(Cl)cc1 -12%

Potency, active:
CCC1CN(C(=O)N2CCC(C(=O)N3CCN(c4cccc(C)c4C)CC3)CC2)c2ccccc2O1 (stereo not given) 20 µM
